# Screen size: about 310,000 compounds; about 14,000 (4.5%) showed an effect of 50% or more. Effects have a minus sign here. This is one part of the list.
# Target: human ether-à-go-go-related gene (hERG) potassium channel (human, UniProt Q12809)
# Experiment: primary screen, population patch clamp on CHO cells stably expressing hERG
# 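Further: peak tail current of the secondary pulse compared with the same well before compound.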
# human ether-à-go-go-related gene (hERG) potassium channel, sequence (Q12809 whole entry, looked up): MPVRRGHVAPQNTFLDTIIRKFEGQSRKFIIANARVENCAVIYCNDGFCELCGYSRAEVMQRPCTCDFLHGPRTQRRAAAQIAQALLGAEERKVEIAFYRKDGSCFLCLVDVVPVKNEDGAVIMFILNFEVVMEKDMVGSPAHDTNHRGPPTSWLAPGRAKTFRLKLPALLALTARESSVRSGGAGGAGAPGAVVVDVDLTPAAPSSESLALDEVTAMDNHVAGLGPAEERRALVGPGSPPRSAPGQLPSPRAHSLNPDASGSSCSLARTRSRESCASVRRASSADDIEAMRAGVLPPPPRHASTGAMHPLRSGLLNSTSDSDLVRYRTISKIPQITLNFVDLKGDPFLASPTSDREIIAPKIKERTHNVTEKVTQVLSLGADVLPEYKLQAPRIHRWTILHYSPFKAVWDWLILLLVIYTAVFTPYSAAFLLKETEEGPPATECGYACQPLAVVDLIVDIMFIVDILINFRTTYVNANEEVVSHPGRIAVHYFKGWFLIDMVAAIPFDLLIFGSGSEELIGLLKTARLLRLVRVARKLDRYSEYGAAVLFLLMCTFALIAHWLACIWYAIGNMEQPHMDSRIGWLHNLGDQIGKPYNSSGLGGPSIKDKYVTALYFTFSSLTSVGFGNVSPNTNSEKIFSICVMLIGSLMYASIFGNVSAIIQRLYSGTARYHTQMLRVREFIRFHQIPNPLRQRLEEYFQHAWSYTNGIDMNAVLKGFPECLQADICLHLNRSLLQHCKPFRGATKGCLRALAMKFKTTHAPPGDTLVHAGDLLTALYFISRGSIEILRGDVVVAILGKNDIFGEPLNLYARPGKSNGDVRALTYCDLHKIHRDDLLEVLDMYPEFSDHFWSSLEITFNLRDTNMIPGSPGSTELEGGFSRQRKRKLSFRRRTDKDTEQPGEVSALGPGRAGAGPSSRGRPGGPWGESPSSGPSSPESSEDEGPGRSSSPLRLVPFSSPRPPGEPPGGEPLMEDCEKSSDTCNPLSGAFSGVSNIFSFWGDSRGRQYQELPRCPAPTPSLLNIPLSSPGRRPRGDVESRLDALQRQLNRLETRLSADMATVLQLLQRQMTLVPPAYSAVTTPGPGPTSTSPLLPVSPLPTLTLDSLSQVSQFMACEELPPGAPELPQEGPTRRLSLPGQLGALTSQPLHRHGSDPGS
row,SMILES,"hERG current change (%, negative = inhibition) at 10uM"
1,OCCN(Cc1ccccc1)Cc1ccccc1Cl,-4.5%
2,COP(=O)(OC)c1nc(-c2ccccc2)oc1N1CCOCC1,8.32%
3,COC(=O)c1sc(N)c(C(=O)OC)c1COC(=O)CNS(=O)(=O)c1cccc(C#N)c1,-9.99%
4,NCCNC(=O)Cn1c(=O)c2c3c(sc2n(Cc2ccccc2)c1=O)CCCC3,0.982%
5,COc1ccc(NC(=O)NNC(=O)c2ccc(-c3ccccc3)cc2)cc1,4.72%
6,CC1=CCCC(C)(C)C1/C=C/C(C)=N/NC(=O)c1ccncc1 (centres unmarked),-24.6%
7,Cn1c(=O)c2c(SCC(=O)Nc3ccc4c(c3)OCCO4)nc(CC(C)(C)C)nc2n(C)c1=O,-12.5%
8,O=C(c1ccco1)N1CCC(c2ccccc2)C1 (centres unmarked),-30.5%
9,C/C(=N\NC(=O)c1ccccc1)c1ccc(C)c([N+](=O)[O-])c1,16.6%
10,O=C1CCCCCC1C1(O)C(=O)Nc2ccc(Br)cc21 (centres unmarked),14.1%
11,CC1CCCC(NC(=O)COC(=O)c2sc3ccccc3c2Cl)C1C (centres unmarked),15.2%
12,COc1ccc(NC(=O)c2ccc(N3C(=O)C4CC=C(C)CC4C3=O)cc2)c(OC)c1 (centres unmarked),-12.3%
13,O=C(CN1CCN(C(=O)c2cccc(F)c2)CC1)Nc1ccccc1F,-70.1%
14,COC(=O)C1=C(C)N(Cc2cccnc2)C(=O)/C1=C\c1sccc1C,-79.2%
15,CCCCn1c(N)c(N(CC(C)C)C(=O)c2cc(C)oc2C)c(=O)[nH]c1=O,8.94%
16,CCOc1ccc(CN(Cc2ccco2)S(=O)(=O)c2ccc(-n3cnnn3)c(OC)c2)cc1,-7.18%
17,Cl.O=C(COc1ccc2ccc(=O)oc2c1)N1CCN(c2ccccc2)CC1,-9.19%
18,COC(=O)c1ccc(NC(=O)CSc2nnc(CNc3ccc(F)cc3)n2C)cc1,-4.32%
19,COCCN1C(=O)/C(=C2/C(=O)N(CC(=O)Nc3ccccc3Cl)c3ccccc32)SC1=S,20.6%

row,SMILES,"hERG current change (%, negative = inhibition) at 10uM"
1,O=C1CC(c2ccccc2)CC2=C1C(c1ccccn1)Nc1ccccc1N2 (centres unmarked),9.64%
2,O=C(Nc1nc2c(s1)CCCC2)c1ccc(Br)o1,9.31%
3,C=CCn1c(SCC(=O)Nc2nnc(C)s2)nnc1-c1cccnc1,23.4%
4,CN(C)c1cccc(C(=O)OCC(=O)N2CCc3ccccc3C2)c1,-15.3%
5,CCOc1cc(-c2c(C#N)c(N)nc3c2CCCC3)ccc1O,8.69%
6,CCOc1ccc(CC(=O)Nc2cccc(-c3ccc4nnc(C)n4n3)c2)cc1,-51.1%
7,CCc1ccccc1NC(=S)NC1CC2CCC(C1)N2Cc1ccco1 (centres unmarked),-29.8%
8,CCOc1ccc(N(CC(=O)Nc2ccc(C)c(C)c2)S(C)(=O)=O)cc1,12.2%
9,O=C(NCc1ccc(N2CCCC2=O)cc1)c1ccc(F)cc1,10.3%
10,Brc1ccc(-c2ccc(/C=N/Nc3nc(N4CCOCC4)nc(N4CCOCC4)n3)o2)cc1,-16.7%
11,Brc1ccc(-c2cnnc(N3CCCC3)n2)cc1,-9.15%
12,Cc1nnc(C)n1/N=C/c1cccc(Oc2ccccc2)c1,-14.2%
13,Cc1nc(CS(=O)(=O)c2ccc(Cl)cc2)cc(Sc2ccccc2Cl)n1,-22.5%
14,CC(=O)Nc1ccc2nc(NC(=O)CS(=O)(=O)c3ccccc3)sc2c1,3.27%
15,CN(c1ccc(C(=O)Nc2ccc3c(c2)OCO3)cc1)S(C)(=O)=O,2.39%
16,COc1cccc(C(=O)C2CCCN(C3CCOCC3)C2)c1 (centres unmarked),-50.4%
17,CN(Cc1ccccc1)C(=C(Cl)Cl)C(=C1NCCN1)[N+](=O)[O-],11.4%
18,CCN(CC)CCn1c(NC(=O)c2ccc(Cl)cc2)nc2ccccc21,-31.5%
19,O=[N+]([O-])c1cc(/C=N/n2c(-c3ccncc3)n[nH]c2=S)ccc1Cl,9.57%

row,SMILES,"hERG current change (%, negative = inhibition) at 10uM"
1,Cl.NC[C@@]12CCCC1C1CCC2C1 (some centres unmarked),-8.07%
2,COC(=O)Cc1c(CSc2ccccc2)oc2ccc(O)c(CN(C)C)c12,-47.8%
3,Cc1cc(C)cc(N2C(N)=NC(N)=NC2c2cccc(Cl)c2)c1.Cl (centres unmarked),3.91%
4,O=C(CSc1nc(C2CC2)nc2ccccc12)N1c2ccccc2Sc2ccc(C(F)(F)F)cc21,-4.52%
5,S=C(Nc1ccc(Nc2ccccc2)cc1)NN1CCOCC1,3.04%
6,COc1ccc(-c2csc3[nH]c(=S)n(-c4ccccc4)c(=O)c23)cc1OC,23.8%
7,O=C(OC1CCOC1=O)c1cc(-c2ccc(Br)cc2)nc2ccccc12 (centres unmarked),-6.58%
8,C=CCN(c1ccccc1)S(=O)(=O)c1cccc(C(=O)NCC(c2ccccc2OC)N2CCCC2)c1 (centres unmarked),-70.5%
9,CC(C)(C)C1CCC(C(=O)OCC(=O)Nc2ccc3[nH]c(=O)[nH]c3c2)CC1 (centres unmarked),25.3%
10,COc1ccc(C)cc1NC(=S)N1CCOCC1,13.9%
11,COc1ccc(C(=O)CSc2n[nH]c(-c3ccncc3)n2)cc1[N+](=O)[O-],5.84%
12,C/C(=N\Nc1cccc(C(=O)O)c1)c1cc2ccccc2o1,9.54%
13,Cc1nc(N2CCN(Cc3ccccc3)CC2)nc2c1C(=O)CCC2,-13.5%
14,CSc1ccc(CCNC(=O)C2CCCN(c3ncnc4c3nc3n4CCCCC3)C2)cc1 (centres unmarked),-61.8%
15,CCOC(=O)c1nnn2c3ccccc3c(=O)n(C)c12,-9.47%
16,CC1(C)C2CCC13CS(=O)(=O)N[C@@H]3C2 (some centres unmarked),20.5%
17,Cc1nc(Cl)cc(CS(=O)(=O)c2ccc(Cl)cc2)n1,9.44%
18,O=C(COc1ccccc1F)NNC(=O)c1ccc2c(=O)n3c(nc2c1)CCC3,0.849%
